Experimental data reported in PubChem BioAssay AID686979 (National Center for Advancing Translational Sciences (NCATS), 2013).
Out of some 420,000 compounds screened, about 50,000 (12%) were called active. This list was built around the results that the source calls inconclusive (neither active nor inactive); the mix of calls is not that of the screen. Calls follow the shape of the dose curve; as a rule, active = well fitted inhibition curve with a large enough effect; inconclusive = small, poorly fitted or top-dose-only effect; inactive = flat fitted curve, though single readings scatter. No potency is given beside an inconclusive call; the fits are too rough.

Assay: qHTS for Inhibitors of human tyrosyl-DNA phosphodiesterase 1 (TDP1): qHTS in cells in presence of CPT; also: nearly all actives have a fitted effect of over 55% in size
Conditions: chicken DT40 Tdp1-/-;hTDP1 cells + 20 nM CPT, ATP luminescence, 48 h; activity change, negative = growth inhibition: at 46.2 µM (top of the series)
How it was run: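 Chicken DT40 Tdp1-/- cells stably complemented with human TDP1 were seeded at 400 cells/well in medium containing 20 nM camptothecin, exposed to pin-transferred compounds, and grown at 37 °C for at least 48 hr. Viability was read as ATP luminescence.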
% is scaled to controls: 0 for no effect and ±100 for the full control effect; potency is read from the fitted curve at half-maximal effect; tags tell the direction and shape of the fitted curve.

Structure (SMILES) | Potency | activity change, negative = growth inhibition
COc1ccc(CN2CCCN(CC(=O)Nc3cc(C)ccc3C)S2(=O)=O)cc1 | active: 20.6 µM | 
COc1ccccc1CCc1nc2ccccc2n1C1CCN(C(=O)c2cn3ccsc3n2)CC1 |  | inactive: 9.36% [at 9.04 µM]
COc1ccc(NC(=O)N2CCCC3(CCN(C(=O)c4cccn4C)CC3)C2)cc1 | inconclusive [inhibitor, full curve, poor fit] | 
Cc1ccc(S(=O)(=O)NCC(=O)OCCOc2cccc(Cl)c2)cc1 |  | inactive: -10.8%
O=C(CCc1nc(-c2ccc(F)cc2)no1)Nc1cccc(C(=O)NC2CC2)c1 | inconclusive [inhibitor, single point] | 
O=C(C1=C[C@H](c2ccc3c(c2)OCO3)C[C@H](OCCCCO)O1)N1CCN(Cc2ccc3c(c2)OCO3)CC1 | inconclusive [inhibitor, single point] | 
CCCCCCCCN1C(=O)[C@H](CC(=O)NCCC(C)C)C[C@@]2(C(=O)OC)CCCCC=C12 | inconclusive [inhibitor, single point] | 
COc1ccc(-c2nc3cnc(Nc4cccc(OC)c4)nc3n(C3CC3)c2=O)cc1 |  | inactive: -26.6%
COc1cc(OC)cc(C(=O)N[C@H](C(=O)Nc2ccc(F)cc2F)C(C)C)c1 |  | inactive: -16.3%
O=C(Nc1ccccc1Cl)c1ccc(F)c(S(=O)(=O)NCc2ccc(Cl)c(Cl)c2)c1 | inconclusive [inhibitor, partial curve] | 
Cc1cccc(C(O)c2ncc(-c3ccc4ccccc4c3)[nH]2)c1C (stereo unspecified) | inconclusive [inhibitor, single point] | 
CCc1ccc2oc(C(=O)NCC(c3ccc(Cl)cc3)N3CCOCC3)c(C)c2c1 (stereo unspecified) | active: 8.2 µM | 
CCOC(=O)c1sc2nc3n(c(=O)c2c1C)CCC(C)CC3 (stereo unspecified) | inconclusive [inhibitor, single point] | 
CCc1nnc(NC(=O)CSc2ccc(-c3nc4ccc(C)cc4[nH]3)cn2)s1 | inconclusive [inhibitor, single point] | 
CCOc1ccc(C(O)(c2ccccc2OC)C(CN2CCCC2)c2ccccc2)cc1 (stereo unspecified) | active: 11.6 µM | 
Cc1ccc(C)c(OCC(=O)Nc2ccc(N3CCOCC3)cc2N2CCOCC2)c1 | inconclusive [inhibitor, single point] | 
Cc1onc(-c2ccccc2)c1C(=O)NC(=S)NNC(=O)c1ccc(O)cc1 | inconclusive [inhibitor, single point] | 
COc1ccc(F)cc1C(=O)C1CCCN(Cc2cccn2-c2ccccn2)C1 (stereo unspecified) | inconclusive [inhibitor, single point] | 
CC1CC(C)CN(C(=O)COC(=O)c2ccc([N+](=O)[O-])o2)C1 (stereo unspecified) | inconclusive [inhibitor, single point] | 
CC1Cc2ccccc2N1C(=O)C1CCN(S(=O)(=O)Cc2ccccc2)CC1 (stereo unspecified) | inconclusive [inhibitor, single point] | 
OCC1(CCOc2ccccc2)CCN(CC2=Cc3cc(Cl)ccc3OC2)CC1 | active: 18.4 µM | 
O=C1CCC(c2ccc(-n3ccnc3)cc2)=NN1 | inactive | 
O=[N+]([O-])c1c(N2CCN(CCO)CC2)nc2ccccn12 |  | inactive: -1.65%
COc1ccc2cc(C(=O)C3CCCN(C(=O)/C=C/c4ccccn4)C3)ccc2c1 (stereo unspecified) | inconclusive [inhibitor, single point] | 

Structure (SMILES) | Potency | activity change, negative = growth inhibition
CCc1cccc(C)c1NC(=O)c1cc(S(=O)(=O)N(C)Cc2ccccc2)ccc1F | active: 29.1 µM | 
COCCNC(=O)C1CCCN(C(=O)/C=C/c2ccccc2)CC1 (stereo unspecified) |  | inactive: 1.05%
COc1ccc(-c2cc(OC(=O)c3ccccc3C)c3c(C)oc(C)c3c(=O)c2)cc1 | inconclusive [inhibitor, single point] | 
CCc1ccc(-c2cc(C)no2)cc1S(=O)(=O)Nc1cc(C)on1 |  | inactive: -0.367%
COc1cc(CNCCN(C)C)c(Br)cc1OC1CCCC1 | active: 18.4 µM | 
CCOC(=O)N1CCC(NC(=O)c2cc(C)c3c(C)nn(-c4ccccc4)c3n2)CC1 |  | inactive: -9.4%
COc1cc2cc(C(c3nnnn3C3CCCCC3)N(C)C3CCCCC3)c(=O)[nH]c2cc1OC (stereo unspecified) | active: 23.1 µM | 
CC(C=NNC(=O)C(=O)NN=CC(C)=Cc1ccccc1)=Cc1ccccc1 | inconclusive [inhibitor, partial curve] | 
C/C(=N\O)C(C)(C)Nc1ccc(Cl)cc1 |  | inactive: -10.5%
Cc1cc(C(=O)OCC(=O)NC(=O)C2CCCCC2)ccc1[N+](=O)[O-] |  | inactive: -4.07%
Cc1ccc2c(c1)c1c(n2CC(O)CN2CCCCC2C)CCCC1 (stereo unspecified) | inconclusive [inhibitor, single point] | 
O=C(CNC(=O)c1cc(S(=O)(=O)N2CCOCC2)ccc1N1CCCC1)Nc1ccc(F)c(F)c1 |  | inactive: -27.5%
COC(=O)c1ccc2[nH]ccc2c1 | inconclusive [inhibitor, partial curve] | 
O=C(CSc1nc2ccccc2n1Cc1ccc(F)cc1)N1CCN(c2ccc(F)cc2)CC1 | inconclusive [inhibitor, single point] | 
COc1cccc(NC(=O)c2nnn(CCc3ccccc3)c2N)c1 | inconclusive [inhibitor, single point] | 
CC(=O)Nc1ccc(NC(=O)c2cc(=O)c3cc(C)cc(C)c3o2)cc1 | inconclusive [inhibitor, single point] | 
COc1ccc(CN(C)C(=O)CCN(c2ccccc2)S(=O)(=O)c2ccc(C)cc2)c(OC)c1 | active: 20.6 µM | 
CNc1cc(-c2ccccc2CN(C)C)ncn1 |  | inactive: -7.38%
CNC(=S)N(C)[C@H]1c2c(ccc3ccccc23)OC[C@H]1CO | inconclusive [inhibitor, single point] | 
Cc1ccc(-c2nc(N)sc2-c2ccc(C)cc2)cc1 | inconclusive [inhibitor, single point] | 
COc1ccc(-c2cc(C(F)(F)F)nc(SCC(=O)N3CC(C)OC(C)C3)n2)cc1OC (stereo unspecified) |  | inactive: -16.9%
Nc1ccc(C(=O)Nc2ccc(Nc3ccncc3)cc2)cc1 | inconclusive [inhibitor, partial curve] | 
CC1(C)Cc2c(sc3ncnc(NN)c23)CO1 | inconclusive [inhibitor, single point] | 
Cc1ccc(NCc2nnc(SCc3ccc(C#N)cc3)n2Cc2ccco2)c(C)c1 | inconclusive [inhibitor, single point] | 

Structure (SMILES) | Potency | activity change, negative = growth inhibition
Cc1csc2nc(COC(=O)c3ccc(F)cc3)cc(=O)n12 | inconclusive [inhibitor, single point] | 
O=c1c2cnn(-c3ccccc3)c2ncn1CCc1ccccc1 |  | inactive: -7.76%
COc1cccc(OC)c1C(=O)NC(=S)N1CCCCC1c1cccnc1 (stereo unspecified) |  | inactive: 6.49%
COc1ccc(C(=O)c2cnc3cc4c(cc3c2C)OCO4)cc1 | inconclusive [inhibitor, partial curve] | 
N#CC1=C2N=C(N)c3c(sc4c3CCCCC4)N2C2=C(C(=O)CCC2)C1c1ccccc1 (stereo unspecified) | inconclusive [inhibitor, single point] | 
Cn1c2c(c3ccccc31)CCN(CCCCN1CCN(c3ccccc3)CC1)C2=O | inconclusive [inhibitor, single point] | 
CC(C)N(Cc1ccccc1)C(=O)COc1ccccc1 | inconclusive [inhibitor, single point] | 
Cc1cc(C)cc(-n2nnnc2SCC(=O)Nc2cccc(NC(=O)c3ccco3)c2)c1 | inconclusive [inhibitor, single point] | 
COCOCCn1cc(CN2CCS(=O)(=O)N(Cc3ccc(-c4ccc(Cl)c(Cl)c4)cc3)C(C)C2=O)nn1 (stereo unspecified) | active: 4.11 µM | 
COCCCn1cc(CN2CC(N3CCCC3)CS2(=O)=O)nn1 (stereo unspecified) |  | inactive: -0.199%
CCOC(=O)[C@@H]1[C@H]2COc3cc(OC)ccc3[C@@H]2N2C(=O)N(c3ccc(Br)cc3)C(=O)[C@]12C | active: 14.6 µM | 
O=c1[nH]c(Cl)nc2c1ncn2C1OC(CO)C(O)C1O (stereo unspecified) |  | inactive: 8.65%
O=C(NCCC1=CCCCC1)C1CCN(c2nc3ccccc3o2)CC1 | inconclusive [inhibitor, single point] | 
O=C(Nc1nc(-c2ccccc2)cs1)c1ccc(Br)o1 | inconclusive [inhibitor, single point] | 
CCc1ccc(C2=CC(c3cccc(C)c3)n3c(nc4ccccc43)N2)cc1 (stereo unspecified) | inconclusive [inhibitor, partial curve, poor fit] | 
COC(=O)c1ccc(NC(=S)Nc2ccccn2)cc1 | inconclusive [inhibitor, single point] | 
CCOC(=O)c1ccc(CN2C(=O)c3ccccc3S2(=O)=O)cc1 |  | inactive: -4.18%
O=C(CSc1nc2[nH]ncc2c(=O)n1-c1ccccc1)N1CCCc2ccccc21 |  | inconclusive: -35% [inhibitor]
COc1ccc(CNC(=O)CSCc2nc(-c3ccccc3F)oc2C)cc1 | inconclusive [inhibitor, single point] | 
CC(C)(C)c1ccc(-c2noc(CCC(=O)NCC3CCCO3)n2)cc1 (stereo unspecified) | active: 20.6 µM | 
Cc1nnc(N2CCC(C(=O)NCCc3ccccc3)CC2)c2nn(-c3ccccc3)c(C)c12 | inconclusive [inhibitor, single point] | 
CCn1c(SCC(=O)N/N=C/C=C/c2ccco2)nnc1-c1ccc(OC)cc1 | inconclusive [inhibitor, single point] | 
O=C(Nc1ccc(OCc2cc(=O)n3ccsc3n2)cc1)c1ccc(F)cc1 |  | inactive: 3.24%
